From PubChem BioAssay AID686971 (National Center for Advancing Translational Sciences (NCATS), 2013)
About 7,500 (2.1%) of roughly 360,000 compounds were called active. The shares of active, inactive and inconclusive entries below differ from those in the screen. Calls come from the whole dose curve; as a rule, active = well fitted cell-killing curve with a large enough effect; inconclusive = small, poorly fitted or top-dose-only effect, or effect the other way, or another doubt; inactive = no such curve, though single readings can be large or run the other way. Potencies of inconclusive entries are left out as doubtful fits.

Assay: qHTS for induction of synthetic lethality in tumor cells producing 2HG: qHTS for the HT-1080-IDH1KD cell line;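 for activity, negative = toxicity: 0% = DMSO wells and -100% = cell-free medium wells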
Settings: HT-1080 IDH1 knockdown viability, ATP luminescence, 48 h; activity, negative = toxicity: at 46.1 µM (top of the series) unless noted
In short: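 Luminescent ATP read-out (CellTiter-Glo, 10 min at room temperature) after 48 h compound exposure at 37 °C gave viability of IDH1-knockdown HT-1080 cells. Activity was normalised to DMSO and cell-free wells, then fitted as concentration-response curves.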
Potency is the fitted concentration of half-maximal effect; tags give direction and shape of the fitted curve.

| SMILES | Potency | activity, negative = toxicity |
| --- | --- | --- |
| CN(C)CCCNc1nc2cc(-c3ccc(F)cc3)sc2c(=O)n1C | active: 16.4 µM |  |
| CCN(CC)S(=O)(=O)c1ccc(Cl)c(NC(=O)COc2ccccc2[N+](=O)[O-])c1 | inconclusive [cytotoxic, partial curve] |  |
| CCN1CCC2(CC1)N=C(c1ccc(F)cc1)C(=S)N2C(=O)c1ccc(C)cc1 | active: 23.1 µM |  |
| Cc1ccc(C(C)C)c(OCCCCN2CCNCC2)c1 | inactive |  |
| C(=NNc1ccc2ccccc2n1)c1ccccn1 | active: 7.31 µM |  |
| COc1ccccc1C1=NOC(C(=O)N2CCN(C(=O)c3ccco3)CC2)C1 (centres undefined) | inactive |  |
| C=CCN=c1scc(-c2ccc(F)cc2)n1/N=C/c1ccccn1 | inconclusive [cytotoxic, partial curve] |  |
| NNC(=O)c1cc2c(N3CCC(Cc4ccccc4)CC3)ncnc2s1 | inconclusive [cytotoxic, single point] |  |
| O=C(N=Nc1c(O)[nH]c2ccc(Br)cc12)c1cc(-c2cccs2)nc2ccccc12 | active: 13 µM |  |
| Cc1ccc(C(=O)NNC(=S)NC(=O)c2ccc(Cl)cc2Cl)cc1 | inconclusive [cytotoxic, single point] |  |
| COc1ccc(-c2ccc(C(=O)Nc3ccccc3)c3occc23)c(C)c1 | inconclusive [cytotoxic, single point] |  |
| COc1ccc(Cc2nnc3sc(SCC(=O)Nc4ccccc4)nn3c2=O)cc1OC |  | inconclusive: 15.7% |
| CCN(C[C@H]1N[C@@](CC)(C(=O)OC)[C@H]2C(=O)N(C)C(=O)[C@@H]12)S(=O)(=O)c1ccc(C(F)(F)F)cc1 | inactive |  |
| CCc1nc2ccc(C(=O)Nc3cccc(OCC(=O)N(C)C)c3)cn2c1N(CC)CCOC | inconclusive [rising, single point] |  |
| CCc1c(C)c(C#N)c2[nH]c3ccccc3n2c1=S | inconclusive [cytotoxic, partial curve] |  |
| CC(=O)N(C(C)=O)c1nc(-c2ccccc2)cn1/N=C/c1ccccc1 | inconclusive [cytotoxic, single point] |  |
| Cc1ccc(S(=O)(=O)CC(O)COc2ccc(F)cc2Cl)c(C)c1 (centres undefined) | inactive |  |
| CCOc1ccc(-c2nnn(CC(=O)Nc3cc(OC)ccc3OC)n2)cc1OCC | inconclusive [cytotoxic, partial curve] |  |
| O=C(/C=C/c1ccccc1)CCN1CCCCC1 | inconclusive [cytotoxic, single point] |  |
| COc1cc(C#Cc2c(-c3cncn3C)n(C)c3ccc(Br)cc23)cc(OC)c1 | inconclusive [cytotoxic, single point] |  |
| N=C1S/C(=C\c2cn[nH]c2-c2ccc(F)cc2)C(=O)N1c1ccccc1F | inconclusive [rising, partial curve, poor fit] |  |
| Cc1c(C(=O)NCc2ccccn2)sc2nc(-c3ccc(F)cc3)cn12 | inconclusive [cytotoxic, partial curve] |  |
| O=C(CN1CCN(c2ccc(Cl)cc2)CC1)Nc1cccc(F)c1 | inactive |  |

| SMILES | Potency | activity, negative = toxicity |
| --- | --- | --- |
| CCc1ccc(NC2=NCC(c3ccccc3)S2)cc1 (centres undefined) | inconclusive [cytotoxic, single point] |  |
| Cc1nc(NC(=O)C2CC2)sc1C(=O)Nc1cccc(Cl)c1 | inconclusive [cytotoxic, partial curve] |  |
| COc1ccc(OC(=O)c2cccc([N+](=O)[O-])c2)c(C(=O)/C=C/c2cccs2)c1 | inconclusive [cytotoxic, single point] |  |
| N#Cc1c(NC(=O)c2ccccc2Cl)n(Cc2ccccc2)c2nc3ccccc3nc12 | inconclusive [cytotoxic, single point] |  |
| CCN1C(N(C)C)=NC[C@@H]1Cc1ccccc1 | inactive |  |
| COCC(=O)N1CCC(Oc2ccc(C(=O)N(C)CCCC3CCCC3)cc2)CC1 | inactive |  |
| O=C(Nc1ccc(Cl)c(C(F)(F)F)c1)NC1CC2CCCC(C1)N2Cc1ccccc1 (centres undefined) | inconclusive [cytotoxic, single point] |  |
| Cc1cc2nc(-c3ccc(SCC(=O)N4CCOCC4)nc3)[nH]c2cc1C | inconclusive [cytotoxic, single point] |  |
| N=c1c2c(-c3ccccc3)c(-c3ccccc3)n(Cc3ccco3)c2ncn1CCCO | active: 8.2 µM |  |
| Nc1nonc1-n1nnc(C(=O)N/N=C/c2ccccc2O)c1CN1CCCC1 | active: 14.6 µM |  |
| Cc1ccc2sc(NC(=O)CSc3nc(C)cc(C)c3C#N)nc2c1 | inconclusive [cytotoxic, partial curve] |  |
| CC1(c2ccccc2)NC(=O)N(CC(=O)Nc2ccc([N+](=O)[O-])cc2)C1=O (centres undefined) | inconclusive [cytotoxic, partial curve] |  |
| c1ccc(CNc2nc(N3CCN(Cc4ccccc4)CC3)nc3ccccc23)cc1 | active: 20.6 µM |  |
| O=C(c1cccc(Br)c1)N1CCN(c2ccccn2)CC1 | inactive |  |
| O=C(/C=C/c1ccc(Cl)cc1Cl)Nc1cccc(S(=O)(=O)NC2=NCCC2)c1 | inconclusive [cytotoxic, single point] |  |
| Cc1cccc(C(=O)OCC(=O)N2CCc3ccccc3C2)c1O | inconclusive [rising, partial curve] |  |
| O=C(COC(=O)c1ccccc1C(=O)c1ccccc1)Nc1ccc(SC(F)F)cc1 | inconclusive [cytotoxic, single point] |  |
| O=c1[nH]nnc2cc(Cl)ccc12 | inactive |  |
| O=C(Nc1nc(-c2cccs2)cs1)c1ccc([N+](=O)[O-])o1 | inconclusive [cytotoxic, single point] |  |
| COCC(=O)Nc1ccc(N2CCCC2)c(S(=O)(=O)Nc2ccccc2OC)c1 | inactive |  |
| CCCCC(=O)Nc1nnc(C2=COCCO2)o1 | inactive |  |
| Cc1ccc(O)c(C(=O)c2cnc3c(c2)CN(CCC(C)C)C(=O)N3)c1 | inconclusive [cytotoxic, partial curve] |  |
| CCOc1ccc(CCN2C(=S)N([C@@H](CC(C)C)CN3CCC[C@@H]3CN3C(=S)NC[C@@H]3CC(C)C)C[C@@H]2Cc2ccc(O)cc2)cc1 | active: 16.4 µM |  |

| SMILES | Potency | activity, negative = toxicity |
| --- | --- | --- |
| O=C(Nc1nnc(C2COc3ccccc3O2)o1)c1ccc(F)cc1 (centres undefined) | inconclusive [cytotoxic, single point] |  |
| CCCCCCCCCCCCN1[C@@H](CC(=O)OC)c2cc(F)cc(F)c2S1(=O)=O | inactive |  |
| COC(=O)c1sccc1NC(=O)C1CC1 | inactive |  |
| Cc1ccc(-c2csc3nc[nH]c(=S)c23)cc1 | inconclusive [cytotoxic, single point] |  |
| CN(C)C=NC(=O)c1[nH]c2ccc(Cl)cc2c1-c1ccccc1 | inconclusive [cytotoxic, single point] |  |
| CNC(=S)N1N=C(c2ccc(C)cc2)CC1c1ccc(Br)cc1 (centres undefined) |  | inconclusive: 35.2% |
| CCCc1[nH]nc2c1C(c1ccsc1)C(C#N)=C(N)O2 (centres undefined) | active: 20.6 µM |  |
| CCC(=O)NC(c1cccs1)c1ccc2cccnc2c1O (centres undefined) | inconclusive [cytotoxic, partial curve] |  |
| CCCn1c(CN2CCN(C(=O)OCC)CC2)nc2cc(NC(=O)C(C)C)ccc21 | inconclusive [cytotoxic, single point] |  |
| CC(C)C[C@H]1COc2cc(N3CCN(Cc4ccccc4F)CC3)ccc2S(=O)(=O)N1 | inactive |  |
| O=C(N/N=C/c1ccc2c(c1)OCO2)c1cc(-c2ccc(F)cc2)nc2ccccc12 | inconclusive [cytotoxic, partial curve] |  |
| COC(=O)c1ccc2c(c1)C(NC(C)=O)CCc1cc(OC)c(OC)c(OC)c1-2 (centres undefined) | inconclusive [cytotoxic, full curve] |  |
| CC1(C(=O)NCc2ccccc2Br)CCN1Cc1ccc(-c2ccccn2)cc1 (centres undefined) | inconclusive [cytotoxic, single point] |  |
| O=C(NCc1ccc2c(c1)OCO2)c1ccc2c(=O)n(C3CCCC3)c(=O)[nH]c2c1 | inconclusive [cytotoxic, partial curve] |  |
| C#CCOCCOCCOCCNc1nc(N2CCN(C(=O)CCCCCCCCCCNC(=O)[C@H](CCCCN)n3cc(C[C@@H](C)CC)nn3)CC2)nc(N2CCN(C(=O)CCCCCCCCCCNC(=O)[C@@H]([C@H](C)O)n3cc(C)nn3)CC2)n1 | inconclusive [cytotoxic, single point] |  |
| Oc1ccc2ccccc2c1C=Nc1ccc(N2CCOCC2)cc1 | inconclusive [cytotoxic, single point] |  |
| CC1=C(C(N)=O)C(c2cccs2)NC(=O)N1 (centres undefined) | inactive |  |
| CSc1n[nH]c(-c2sccc2OCc2ccc(C)cc2)n1 | inactive |  |
| Cc1nn(-c2ccccn2)c2c1C(=O)CC(C)(C)C2Br (centres undefined) | inconclusive [cytotoxic, single point] |  |
| CC(C)(C)c1cc(Cl)ccc1OCCn1ccnc1 | inconclusive [cytotoxic, single point] |  |
| Cc1cccc(NC(=O)c2cccc([N+](=O)[O-])c2O)c1C | inconclusive [cytotoxic, single point] |  |
| Cc1onc(-c2ccccc2)c1C(=O)NNC(=S)NC(=O)c1ccc2c(c1)OCO2 | inconclusive [cytotoxic, partial curve] |  |
| Cc1[nH]c(N=Nc2ccccc2)nc1N=Nc1ccccc1 | inconclusive [cytotoxic, single point] |  |
